The record followed here is PMC5700166.

Only a part is listed here, and it is no random draw. The list includes weakly bound sequences.

Assay in all cases: protein-binding microarray (PBM)
Holding throughout (details): PBM: ~300 nM protein, 6 mM HEPES pH 7.8, 80 mM KCl, 0.5 mM EDTA, 0.5 mM EGTA, 6% glycerol, 35 ng/ul poly-dIdC, 1% milk, 1 h, room temperature; Ap Aiptasia and Nv Nematostella (sea anemones) / Co Capsaspora / Aq Amphimedon (sponge) / Dm Drosophila / Hu human; RHD is the Rel homology domain; high values mean tight binding; most listed sequences are background and not binding sites; double strand, one strand shown

One assay deals with T1, GST-Ap-NF-kB RHD (UniProt A0A913YAJ5).
T1 sequence: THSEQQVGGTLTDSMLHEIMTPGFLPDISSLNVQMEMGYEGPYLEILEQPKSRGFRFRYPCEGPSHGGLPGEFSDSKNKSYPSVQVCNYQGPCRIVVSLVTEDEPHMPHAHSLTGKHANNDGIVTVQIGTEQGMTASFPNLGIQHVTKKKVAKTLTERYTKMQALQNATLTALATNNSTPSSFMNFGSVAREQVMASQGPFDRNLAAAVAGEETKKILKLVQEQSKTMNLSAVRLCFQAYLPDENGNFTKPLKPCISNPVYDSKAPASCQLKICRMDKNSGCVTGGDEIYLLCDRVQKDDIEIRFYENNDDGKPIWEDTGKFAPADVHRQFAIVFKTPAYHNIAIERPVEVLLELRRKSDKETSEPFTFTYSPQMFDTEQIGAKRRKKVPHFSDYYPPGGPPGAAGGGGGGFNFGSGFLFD

In assay [1] the target is T2, GST-Nv-NF-kB (Cys allele) (UniProt E5G601).
T2 sequence: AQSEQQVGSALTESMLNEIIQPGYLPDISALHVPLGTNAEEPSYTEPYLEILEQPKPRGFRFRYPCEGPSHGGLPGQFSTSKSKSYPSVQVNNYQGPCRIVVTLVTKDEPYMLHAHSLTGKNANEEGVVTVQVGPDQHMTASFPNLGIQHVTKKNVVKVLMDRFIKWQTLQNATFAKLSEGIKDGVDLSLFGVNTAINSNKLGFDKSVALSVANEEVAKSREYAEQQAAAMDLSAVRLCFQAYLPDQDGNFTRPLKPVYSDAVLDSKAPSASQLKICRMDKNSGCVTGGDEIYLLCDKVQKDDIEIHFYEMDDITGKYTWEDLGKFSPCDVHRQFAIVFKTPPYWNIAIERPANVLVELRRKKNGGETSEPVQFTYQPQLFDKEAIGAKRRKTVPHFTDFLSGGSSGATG

Another assay addresses T3, GST-Co-NF-kB (UniProt F1ARL5).
T3 sequence: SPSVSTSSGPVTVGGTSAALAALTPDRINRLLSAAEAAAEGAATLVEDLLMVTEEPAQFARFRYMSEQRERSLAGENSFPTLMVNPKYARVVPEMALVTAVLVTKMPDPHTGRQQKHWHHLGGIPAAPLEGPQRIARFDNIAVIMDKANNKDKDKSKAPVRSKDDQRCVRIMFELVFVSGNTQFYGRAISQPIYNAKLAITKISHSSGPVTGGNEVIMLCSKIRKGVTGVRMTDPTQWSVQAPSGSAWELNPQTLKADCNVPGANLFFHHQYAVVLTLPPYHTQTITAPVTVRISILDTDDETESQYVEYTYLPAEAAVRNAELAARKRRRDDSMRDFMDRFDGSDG

Another assay concerns the target T4, GST-Dm-Relish (UniProt Q94527).
T4 sequence: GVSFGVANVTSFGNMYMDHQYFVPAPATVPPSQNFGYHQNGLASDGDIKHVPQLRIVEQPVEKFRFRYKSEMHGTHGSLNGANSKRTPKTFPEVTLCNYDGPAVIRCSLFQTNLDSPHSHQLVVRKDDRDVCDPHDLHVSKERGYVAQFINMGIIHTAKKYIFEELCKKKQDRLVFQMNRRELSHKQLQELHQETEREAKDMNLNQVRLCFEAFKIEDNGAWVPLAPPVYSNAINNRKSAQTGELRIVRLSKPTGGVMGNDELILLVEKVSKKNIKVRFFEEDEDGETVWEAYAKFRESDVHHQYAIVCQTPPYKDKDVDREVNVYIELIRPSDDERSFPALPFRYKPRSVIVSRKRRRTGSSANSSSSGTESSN

The next assay concerns the target T5, GST-Aq-NF-kB (UniProt A9Y5G7).
T5 sequence: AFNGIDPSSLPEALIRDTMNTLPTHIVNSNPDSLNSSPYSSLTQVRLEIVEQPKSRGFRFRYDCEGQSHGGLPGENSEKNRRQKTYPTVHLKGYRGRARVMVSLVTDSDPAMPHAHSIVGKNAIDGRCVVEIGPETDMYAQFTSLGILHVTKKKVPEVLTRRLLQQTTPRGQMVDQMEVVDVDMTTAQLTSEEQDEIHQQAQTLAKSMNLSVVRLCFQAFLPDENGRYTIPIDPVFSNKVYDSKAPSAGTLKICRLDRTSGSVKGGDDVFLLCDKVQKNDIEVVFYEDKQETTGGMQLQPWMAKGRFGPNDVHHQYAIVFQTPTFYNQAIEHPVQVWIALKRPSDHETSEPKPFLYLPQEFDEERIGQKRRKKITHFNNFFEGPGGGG

As for “CCGATTAACATCATCGGATCTGTTGATGTTAATCGGGTCTTGATTCGCTTGACGCTGCTG”, the binding signal in the assay with GST-Ap-NF-kB RHD was -0.111 z-score; in assay [1], -0.838 z-score; in the assay with GST-Co-NF-kB, -1.37 z-score; in the assay with GST-Dm-Relish, -1.04 z-score; with GST-Aq-NF-kB, -0.465 z-score.
The matching figures for “CCGATTAACATCAGCAGGTGCCATGATGTTAATCGGGTCTTGATTCGCTTGACGCTGCTG”: 0.12 z-score, -0.255 z-score, -0.787 z-score, -1.07 z-score and -0.474 z-score.
The matching figures for “CCGATTAACATCAAATTTTCCGTTGATGTTAATCGGGTCTTGATTCGCTTGACGCTGCTG”: -0.342 z-score, -0.323 z-score, 0.393 z-score, 0.673 z-score and 0.992 z-score.
The matching figures for “CCGATTAACATCAGGAAGTTTTATGATGTTAATCGGGTCTTGATTCGCTTGACGCTGCTG”: -0.552 z-score, 0.14 z-score, -0.249 z-score, 0.764 z-score and 0.799 z-score.
On to “CCGATTAACATCACGGAAATTCATGATGTTAATCGGGTCTTGATTCGCTTGACGCTGCTG”, for which the binding signal in the assay with GST-Ap-NF-kB RHD was -0.339 z-score; in assay [1], 0.109 z-score; with GST-Co-NF-kB it was 0.774 z-score; in the assay with GST-Dm-Relish, 0.144 z-score; in the assay with GST-Aq-NF-kB, 0.717 z-score.
The matching figures for “CCGATTAACATCATGGGCTCCGATGATGTTAATCGGGTCTTGATTCGCTTGACGCTGCTG”: -0.528 z-score, -0.282 z-score, -1 z-score, -0.19 z-score and -0.414 z-score.
Turning to “CCGATTAACATCAATAATTTGTATGATGTTAATCGGGTCTTGATTCGCTTGACGCTGCTG”, the binding signal is -0.881 z-score with GST-Ap-NF-kB RHD; -0.462 z-score in assay [1]; 0.403 z-score with GST-Co-NF-kB; -0.143 z-score with GST-Dm-Relish; -0.353 z-score with GST-Aq-NF-kB.
Consider “CCGATTAACATCAGATATAGTACTGATGTTAATCGGGTCTTGATTCGCTTGACGCTGCTG”, for which the binding signal with GST-Ap-NF-kB RHD is -0.674 z-score; in assay [1], -0.683 z-score; with GST-Co-NF-kB it was -0.386 z-score; with GST-Dm-Relish it was -0.336 z-score; with GST-Aq-NF-kB, -0.547 z-score.
The matching figures for “CCGATTAACATCAGAAATGACCTTGATGTTAATCGGGTCTTGATTCGCTTGACGCTGCTG”: -0.548 z-score, -0.0831 z-score, -0.305 z-score, -0.0329 z-score and -0.0485 z-score.
For “CCGATTAACATCAGTAATTTACATGATGTTAATCGGGTCTTGATTCGCTTGACGCTGCTG”, the binding signal in the assay with GST-Ap-NF-kB RHD is -0.851 z-score; in assay [1], 0.0802 z-score; with GST-Co-NF-kB, 0.117 z-score; with GST-Dm-Relish, 6.73 z-score; with GST-Aq-NF-kB it was -0.0854 z-score.
In the same order, the values of “CCGATTAACATCAATCATGAGGCTGATGTTAATCGGGTCTTGATTCGCTTGACGCTGCTG” are -0.111 z-score, 0.098 z-score, -0.205 z-score, -0.573 z-score and -0.579 z-score.
The matching figures for “CCGATTAACATCAGCACGGCATGTGATGTTAATCGGGTCTTGATTCGCTTGACGCTGCTG”: -0.229 z-score, 0.333 z-score, -0.0423 z-score, 0.654 z-score and -0.341 z-score.
The matching figures for “CCGATTAACATCAAGAATTTCCATGATGTTAATCGGGTCTTGATTCGCTTGACGCTGCTG”: -0.508 z-score, -0.155 z-score, -0.189 z-score, 0.353 z-score and 0.846 z-score.
Consider “CCGATTAACATCAGAACGGATAATGATGTTAATCGGGTCTTGATTCGCTTGACGCTGCTG”, for which the binding signal is -0.15 z-score in the assay with GST-Ap-NF-kB RHD; 0.0491 z-score in assay [1]; 0.274 z-score with GST-Co-NF-kB; -0.495 z-score with GST-Dm-Relish; -0.287 z-score in the assay with GST-Aq-NF-kB.
